Laboratory results reported in PubChem BioAssay AID485281 (National Center for Advancing Translational Sciences (NCATS), 2010).
Hit rate of the full screen: of about 350,000 compounds, about 260 (0.074%) were called active. Inconclusive means that the source gave no clear call. Such entries were picked first, then a sample of the others. Calls follow the shape of the dose curve; as a rule, active = well fitted inhibition curve with a large enough effect; inconclusive = small, poorly fitted or top-dose-only effect; inactive = no such curve, though single readings can be large or run the other way. Potencies of inconclusive entries are doubtful fits and often do not repeat.

target: Ferritin light chain (Equus caballus) (UniProt P02791); assay: qHTS Assay for Identification of Novel General Anesthetics; conditions: apoferritin/1-aminoanthracene competitive binding, fluorescence; activity change, negative = displacement: at 77.5 µM (top of the series); also: nearly all actives have a fitted effect of over 20% in size
UniProt P02791, sequence (P02791 whole entry, looked up): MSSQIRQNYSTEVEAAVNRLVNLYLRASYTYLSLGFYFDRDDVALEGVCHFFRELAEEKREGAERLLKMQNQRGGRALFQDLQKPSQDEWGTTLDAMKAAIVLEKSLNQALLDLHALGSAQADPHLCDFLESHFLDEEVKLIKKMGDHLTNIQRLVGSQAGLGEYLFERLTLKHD
Summary of the method: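 Probe: 1-aminoanthracene (50% saturated, PBS). Protein: horse-spleen apoferritin, 10 uM. Incubation: 10 min, room temperature. Detection: 380 nm excitation, 535 nm emission. Analysis: normalized response, four-parameter Hill.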
% is scaled to controls: 0 for no effect and ±100 for the full control effect; potency is read from the fitted curve at half-maximal effect; tags tell the direction and shape of the fitted curve.

Q: How did the “activity change, negative = displacement” value turn out when `Cc1cc(C)c(C#N)c(N2CCN(CCOc3ccc(Cl)cc3)CC2)n1` was run?
A: Its value is inactive: -3.79%.

Q: Which Potency does the source give for `CCc1ccc(S(=O)(=O)Nc2c(NC3CCCCC3)c3ccccc3oc2=O)cc1` here?
A: Its Potency is inconclusive: 6.31 µM [inhibitor, partial curve].

Q: For `CCCCOc1ccc(NC(=O)CN2CCN(Cc3ccccc3)CC2)cc1`, which Potency is on record?
A: The Potency was inconclusive: 44.7 µM [inhibitor, single point].

Q: Which Potency does the source give for `Cc1cccc(N/C=C/c2onc(C)c2[N+](=O)[O-])c1` here?
A: The Potency was inconclusive: 7.94 µM [inhibitor, full curve].

Q: For `O=C(COc1ccc(Cl)cc1Cl)NCCSc1ccc(Cl)cc1`, which “activity change, negative = displacement” value is on record?
A: Its value is inactive: 33.2%.

Q: How did the Potency turn out when `CN(C)S(=O)(=O)Oc1ccsc1C(=O)Nc1ccc(Cl)c(Cl)c1` was run?
A: The Potency was inconclusive: 20 µM [inhibitor, partial curve].

Q: With `O=C(CNS(=O)(=O)c1ccc2ccccc2c1)OCC(=O)c1ccc(Br)s1` as the molecule, how does the Potency read?
A: Its Potency is inconclusive: 15.8 µM [inhibitor, partial curve].

Q: For `Cc1ccc(S(N)(=O)=O)cc1NC(=O)c1ccc2c3c(cccc13)CC2`, which Potency is on record?
A: Its Potency is inconclusive: 25.1 µM [inhibitor, partial curve].

Q: How did the Potency turn out when `O=C(COc1ccc(S(=O)(=O)N2CCOCC2)cc1)Nc1cccc([N+](=O)[O-])c1` was run?
A: The Potency was inconclusive: 25.1 µM [inhibitor, partial curve].

Q: Which “activity change, negative = displacement” value does the source give for `COc1ccc(-c2nn(-c3ccccc3)cc2/C=C2/SC(=S)N(CCC(=O)O)C2=O)cc1` here?
A: Its value is inactive: -10.1%.

Q: For `Cc1nn(CC(=O)Nc2ccc(Br)cc2F)c(=O)c2cccn12`, which Potency is on record?
A: The Potency was inconclusive: 39.8 µM [inhibitor, partial curve].

Q: Which Potency does the source give for `Cn1nnnc1SCc1csc(Nc2ccccc2)n1` here?
A: Its Potency is inconclusive: 44.7 µM [inhibitor, single point].

Q: `Cc1ccc(OCC(=O)Nc2ccc(S(=O)(=O)N3CCN(C)CC3)cc2)cc1` was tested. Which Potency did it give?
A: Its Potency is inconclusive: 35.5 µM [inhibitor, partial curve].

Q: For `CC1=C/C(=C(\c2cc(C)c(O)c(Br)c2)c2ccccc2S(=O)(=O)O)C=C(Br)C1=O`, which Potency is on record?
A: Its Potency is inconclusive: 44.7 µM [inhibitor, single point].

Q: With `Oc1cccc(-c2nc(-c3cccs3)c(-c3cccs3)[nH]2)c1` as the molecule, how does the “activity change, negative = displacement” value read?
A: Its value is inactive: -10.5%.

Q: For `Cc1ccc(SCC(=O)NC(=O)NCc2ccco2)c(C)c1`, which Potency is on record?
A: The Potency was inconclusive: 39.8 µM [inhibitor, partial curve].

Q: `O=C(CSc1nnc(COc2ccccc2)n1-c1ccccc1)c1cccs1` was tested. Which Potency did it give?
A: The Potency was inconclusive: 31.6 µM [inhibitor, partial curve].

Q: With `Cc1ccc(NC(=O)c2sc3ncn(CC(=O)N4CCN(c5ccccn5)CC4)c(=O)c3c2C)cc1Cl` as the molecule, how does the Potency read?
A: The Potency was inconclusive: 7.94 µM [inhibitor, full curve, poor fit].

Q: `CCc1cc2c(cc3c(=O)n(CC(=O)NC(C)C)nc(CC)n32)s1` was tested. Which “activity change, negative = displacement” value did it give?
A: Its value is inactive: -1.7%.

Q: For `CCOC(=O)Cc1csc(SCc2nc3sc4c(c3c(=O)[nH]2)CCC4)n1`, which Potency is on record?
A: The Potency was inconclusive: 31.6 µM [inhibitor, partial curve].

Q: How did the “activity change, negative = displacement” value turn out when `COc1cccc(C2C(C#N)=C(N)N(N(C)C)C3=C2C(=O)CC(C)(C)C3)c1` (centres undefined) was run?
A: Its value is inactive: 4.15%.

Q: For `O=C(Oc1ccc2ccccc2c1)C1CCC1`, which Potency is on record?
A: Its Potency is inconclusive: 31.6 µM [inhibitor, partial curve].

Q: For `C/C(=N\NC(=O)c1c(Cl)c(C)nn1C)c1cccc(NC(=O)C2CCCC2)c1`, which Potency is on record?
A: Its Potency is inconclusive: 39.8 µM [inhibitor, partial curve].

Q: `O=C(Cn1nnc(-c2ccccc2Cl)n1)N1CCCCC1` was tested. Which Potency did it give?
A: The Potency was inconclusive: 44.7 µM [inhibitor, single point].

Q: For `O=C(Nc1ccc(Oc2cccnc2)cc1)c1ccccc1Cl`, which “activity change, negative = displacement” value is on record?
A: The value was inactive: 5.81%.

Q: Which Potency does the source give for `CCOc1ccc(OCC)c(NC(=O)C2CCCN2S(=O)(=O)c2cccc3cccnc23)c1` (centres undefined) here?
A: The Potency was inconclusive: 15.8 µM [inhibitor, partial curve].

Q: Which “activity change, negative = displacement” value does the source give for `Cc1o[nH]c(=O)c1CCC(N)C(=O)O` (centres undefined) here?
A: The value was inactive: 18.2%.

Q: How did the “activity change, negative = displacement” value turn out when `Cc1nc(C)c(C(=O)Nc2ncc([N+](=O)[O-])s2)o1` was run?
A: The value was inactive: -10.6%.

Q: With `O=C1NC2(CCCCC2)C(=O)N1Cc1cc(=O)n2ccsc2n1` as the molecule, how does the “activity change, negative = displacement” value read?
A: The value was inactive: -1.9%.

Q: `Cc1ccc(-n2c(-c3cccc(C)c3)nc3c(cnn3-c3ccccc3)c2=O)cc1` was tested. Which Potency did it give?
A: The Potency was inconclusive: 3.55 µM [inhibitor, full curve].

Q: `S=C(Nc1ccccn1)NC1CCCC1` was tested. Which Potency did it give?
A: The Potency was inconclusive: 28.2 µM [inhibitor, single point].

Q: Which Potency does the source give for `O=C(Oc1cccc(-c2cnc3ccccc3n2)c1)c1ccco1` here?
A: Its Potency is inconclusive: 12.6 µM [inhibitor, partial curve].

Q: For `CCOC(=O)c1nnc(-c2ccc(C)cc2)nc1Oc1ccc(Cl)cc1Cl`, which Potency is on record?
A: Its Potency is inconclusive: 35.5 µM [inhibitor, partial curve].

Q: For `CC1=CCC2C(=O)N(c3cccc(C(=O)Nc4ccc(Cl)cc4)c3)C(=O)C2C1` (centres undefined), which Potency is on record?
A: The Potency was inconclusive: 17.8 µM [inhibitor, partial curve].

Q: How did the Potency turn out when `CCS(=O)(=O)N1CCc2cc(C(=O)Nc3cccc(NC(C)=O)c3)ccc21` was run?
A: Its Potency is inconclusive: 20 µM [inhibitor, partial curve].

Q: `COc1ccc(-c2ccc(=O)n(CC(=O)Nc3ccccc3C(F)(F)F)n2)cc1` was tested. Which Potency did it give?
A: The Potency was inconclusive: 11.2 µM [inhibitor, full curve].

Q: For `CN(C)c1nc(-c2ccccn2)nnc1-c1ccccc1`, which “activity change, negative = displacement” value is on record?
A: Its value is inactive: -23.3%.

Q: With `Nc1ccc(Oc2ccc([N+](=O)[O-])cc2[N+](=O)[O-])cc1` as the molecule, how does the Potency read?
A: Its Potency is inconclusive: 25.1 µM [inhibitor, partial curve].

Q: `CCN(C(=O)COc1ccccc1)c1nnc(-c2cccnc2)s1` was tested. Which “activity change, negative = displacement” value did it give?
A: Its value is inactive: -3.57%.

Q: With `Cc1cc(C=O)c(C)n1-c1ccc(N2CCCCC2)c([N+](=O)[O-])c1` as the molecule, how does the Potency read?
A: Its Potency is inconclusive: 4.47 µM [inhibitor, full curve].

Q: How did the Potency turn out when `Clc1ccccc1CSc1nncn1NC/C=C/c1ccccc1` was run?
A: Its Potency is inconclusive: 44.7 µM [inhibitor, single point].

Q: Which Potency does the source give for `CC(=O)c1cc(C#N)c(SCC(=O)C(C)(C)C)nc1C` here?
A: The Potency was inconclusive: 28.2 µM [inhibitor, partial curve].

Q: `Cc1cccc(-c2nnc3n2N=C(c2ccccc2Br)CS3)c1` was tested. Which Potency did it give?
A: The Potency was inconclusive: 25.1 µM [inhibitor, partial curve].

Q: How did the Potency turn out when `COc1ccc(OCCC(=O)OCC(=O)c2ccc[nH]2)cc1` was run?
A: Its Potency is inconclusive: 35.5 µM [inhibitor, single point].
